# This is one part of the list.
# B1: Eap (Staphylococcus aureus), A0A7L5PYT7 (protein)
# chain: MKFKSLITTTLALGVLASTGANFNNNEAAAAAKPLDKSSSSLHHGYSKVHVPYAITVNGTSQNILSSLTFNKNQNISYKDLEDRVKSVLKSDRGISDIDLRLSKQAKYTVYFKNGTKKVIDLKAGIYTADLINTSEIKAININVDTKKQVEDKKKDKANYQVPYTITVNGTSQNILSNLTFNKNQNISYKDLEDKVKSVLESNRGITDVDLRLSKQAKYTVNFKNGTKKVIDLKSGIYTANLINSSDIKSININVDTKKHIENKAKRNYQVPYSINLNGTSTNILSNLSFSNKPWTNYKNLTSQIKSVLKHDRGISEQDLKYAKKAYYTVYFKNGGKRILQLNSKNYTANLVHAKDVKRIEITVKTGTKAKADRYVPYTIAVNGTSTPILSDLKFTGDPRVGYKDISKKVKSVLKHDRGIGERELKYAKKATYTVHFKNGTKKVININSNISQLNLLYVQDIKKIDIDVKTGTKAKADSYVPYTIAVNGTSTPILSKLKISNKQLISYKYLNDKVKSVLKSERGISDLDLKFAKQAKYTVYFKNGKKQVVNLKSDIFTPNLFSAKDIKKIDIDVKQYTKSKKNK
# Assays:
# Assay in all cases: glycan array binding signal (z-score within array); higher = stronger binding
# Details in all cases: glycan notation: IUPAC condensed, linker removed
# [1] = target: Fuc(a1-2)Gal
# In short: (§1)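 Columns mapping to the same glycan were averaged after glycan names were converted to IUPAC-condensed notation. The data come from 3228 arrays in the Consortium for Functional Glycomics database, limited to those with an available protein sequence. Binding is reported as a within-array Z-score averaged across arrays of one protein sequence and across linkers.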
# [2] = target: Fuc(a1-2)Gal(b1-3)GalNAc
# In short: as §1
# [3] = target: Fuc(a1-2)Gal(b1-3)GalNAc(b1-3)Gal
# In short: as §1
# [4] = target: Fuc(a1-2)Gal(b1-3)GalNAc(b1-3)Gal(a1-4)Gal(b1-4)Glc
# In short: as §1
# [5] = target: Fuc(a1-2)Gal(b1-3)GalNAc(b1-4)[Neu5Ac(a2-3)]Gal(b1-4)Glc
# In short: as §1
# [6] = target: Fuc(a1-2)Gal(b1-3)GlcNAc
# In short: as §1
# [7] = target: Fuc(a1-2)Gal(b1-3)GlcNAc(b1-2)Man(a1-3)[Fuc(a1-2)Gal(b1-3)GlcNAc(b1-2)Man(a1-6)]Man(b1-4)GlcNAc(b1-4)GlcNAc
# In short: as §1
# [8] = target: Fuc(a1-2)Gal(b1-3)GlcNAc(b1-3)Gal(b1-4)Glc
# In short: as §1
# [9] = target: Fuc(a1-2)Gal(b1-3)GlcNAc(b1-3)[Gal(b1-4)[Fuc(a1-3)]GlcNAc(b1-6)]Gal(b1-4)Glc
# In short: as §1
# [10] = target: Fuc(a1-2)Gal(b1-3)[Fuc(a1-4)]GlcNAc
# In short: as §1
# [11] = target: Fuc(a1-2)Gal(b1-3)[Fuc(a1-4)]GlcNAc(b1-2)Man(a1-3)[Fuc(a1-2)Gal(b1-3)[Fuc(a1-4)]GlcNAc(b1-2)Man(a1-6)]Man(b1-4)GlcNAc(b1-4)GlcNAc
# In short: as §1
# [12] = target: Fuc(a1-2)Gal(b1-4)Glc
# In short: as §1
# [13] = target: Fuc(a1-2)Gal(b1-4)Glc6S
# In short: as §1
# [14] = target: Fuc(a1-2)Gal(b1-4)GlcNAc
# In short: as §1
# [15] = target: Fuc(a1-2)Gal(b1-4)GlcNAc(b1-2)Man(a1-3)[Fuc(a1-2)Gal(b1-4)GlcNAc(b1-2)Man(a1-6)]Man(b1-4)GlcNAc(b1-4)GlcNAc
# In short: as §1
# [16] = target: Fuc(a1-2)Gal(b1-4)GlcNAc(b1-3)Gal(b1-4)GlcNAc
# In short: as §1
# [17] = target: Fuc(a1-2)Gal(b1-4)GlcNAc(b1-3)Gal(b1-4)GlcNAc(b1-3)Gal(b1-4)GlcNAc
# In short: as §1
# [18] = target: Fuc(a1-2)Gal(b1-4)GlcNAc6S
# In short: as §1
# [19] = target: Fuc(a1-2)Gal(b1-4)[Fuc(a1-3)]GlcNAc
# In short: as §1
# [20] = target: Fuc(a1-2)Gal(b1-4)[Fuc(a1-3)]GlcNAc(b1-2)Man(a1-3)[Fuc(a1-2)Gal(b1-4)[Fuc(a1-3)]GlcNAc(b1-2)Man(a1-6)]Man(b1-4)GlcNAc(b1-4)GlcNAc
# In short: as §1
# [21] = target: Fuc(a1-2)Gal(b1-4)[Fuc(a1-3)]GlcNAc(b1-3)Gal(b1-4)[Fuc(a1-3)]GlcNAc
# In short: as §1
# [22] = target: Fuc(a1-2)Gal(b1-4)[Fuc(a1-3)]GlcNAc(b1-3)Gal(b1-4)[Fuc(a1-3)]GlcNAc(b1-3)Gal(b1-4)[Fuc(a1-3)]GlcNAc
# In short: as §1
# [23] = target: Fuc(a1-2)Gal6S(b1-4)Glc
# In short: as §1
# [24] = target: Fuc(a1-2)Gal6S(b1-4)Glc6S
# In short: as §1
# [25] = target: Fuc(a1-2)Gal6S(b1-4)GlcNAc
# In short: as §1
# [26] = target: Fuc(a1-2)[Gal(a1-3)]Gal
# In short: as §1
# [27] = target: Fuc(a1-2)[Gal(a1-3)]Gal(b1-3)GlcNAc
# In short: as §1
# [28] = target: Fuc(a1-2)[Gal(a1-3)]Gal(b1-3)GlcNAc(b1-2)Man(a1-3)[Fuc(a1-2)[Gal(a1-3)]Gal(b1-3)GlcNAc(b1-2)Man(a1-6)]Man(b1-4)GlcNAc(b1-4)GlcNAc
# In short: as §1
# [29] = target: Fuc(a1-2)[Gal(a1-3)]Gal(b1-4)Glc
# In short: as §1
# [30] = target: Fuc(a1-2)[Gal(a1-3)]Gal(b1-4)GlcNAc
# In short: as §1
binder,measurement,setting,value
B1,glycan array binding signal (z-score),[1],-0.414
same,glycan array binding signal (z-score),[2],0.14
same,glycan array binding signal (z-score),[3],-0.474
same,glycan array binding signal (z-score),[4],0.012
same,glycan array binding signal (z-score),[5],-0.367
same,glycan array binding signal (z-score),[6],0.041
same,glycan array binding signal (z-score),[7],-0.431
same,glycan array binding signal (z-score),[8],-0.377
same,glycan array binding signal (z-score),[9],-0.483
same,glycan array binding signal (z-score),[10],-0.514
same,glycan array binding signal (z-score),[11],0.259
same,glycan array binding signal (z-score),[12],-0.374
same,glycan array binding signal (z-score),[13],0.006
same,glycan array binding signal (z-score),[14],-0.415
same,glycan array binding signal (z-score),[15],-0.43
same,glycan array binding signal (z-score),[16],-0.412
same,glycan array binding signal (z-score),[17],-0.357
same,glycan array binding signal (z-score),[18],-0.281
same,glycan array binding signal (z-score),[19],2.21
same,glycan array binding signal (z-score),[20],-0.209
same,glycan array binding signal (z-score),[21],-0.313
same,glycan array binding signal (z-score),[22],-0.197
same,glycan array binding signal (z-score),[23],0.262
same,glycan array binding signal (z-score),[24],1.25
same,glycan array binding signal (z-score),[25],-0.45
same,glycan array binding signal (z-score),[26],-0.341
same,glycan array binding signal (z-score),[27],0.027
same,glycan array binding signal (z-score),[28],-0.498
same,glycan array binding signal (z-score),[29],-0.059
same,glycan array binding signal (z-score),[30],-0.309

# Source: the supplement of paper PMC8728848
